{
  "source": "the supplement of paper PMC8728848",
  "binders": {"B1": {"name": "SJA (Sophora japonica) (protein)", "chain": "FLGLFNSGGYSSSYQIVAVEFDTYINEWDPKTRHIGIDINSINSTKTVTWGWENGEVAIVLISYKAATETLTVSLTYPSSQTSYILSAAVDLKSILPEWVRIGF"}},
  "test_in_all_cases": "glycan array binding signal (z-score within array); higher = stronger binding",
  "conditions_in_all_cases": "glycan notation: IUPAC condensed, linker removed",
  "key": {"[1]": {"target": "GalNAc(a1-3)GalNAc(b1-3)Gal(a1-4)Gal(b1-4)GlcNAc", "in_short": "(§1)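 The binding signal is a Z-score computed within each array. Data were drawn from 3228 arrays in the Consortium for Functional Glycomics database, restricted to those with a known protein sequence. Scores were averaged over arrays of the same protein sequence at different concentrations or buffers, and over linkers, and negative values can be taken as non-binding.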"}, "GalNAc(b1-3)Gal": {"target": "GalNAc(b1-3)Gal", "in_short": "as §1"}, "[2]": {"target": "GalNAc(b1-3)Gal(a1-4)Gal(b1-4)GlcNAc", "in_short": "as §1"}, "[3]": {"target": "GalNAc(b1-3)Gal(a1-4)Gal(b1-4)GlcNAc(b1-3)Gal(b1-4)Glc", "in_short": "as §1"}, "[4]": {"target": "GalNAc(b1-3)Gal(a1-6)Gal(b1-4)Glc", "in_short": "as §1"}, "GalNAc(b1-3)GalNAc": {"target": "GalNAc(b1-3)GalNAc", "in_short": "as §1"}, "GalNAc(b1-3)GlcNAc": {"target": "GalNAc(b1-3)GlcNAc", "in_short": "as §1"}, "GalNAc(b1-4)Gal(b1-4)Glc": {"target": "GalNAc(b1-4)Gal(b1-4)Glc", "in_short": "as §1"}, "GalNAc(b1-4)GlcNAc": {"target": "GalNAc(b1-4)GlcNAc", "in_short": "as §1"}, "[5]": {"target": "GalNAc(b1-4)GlcNAc(b1-2)Man", "in_short": "as §1"}, "[6]": {"target": "GalNAc(b1-4)GlcNAc(b1-2)Man(a1-3)[GalNAc(b1-4)GlcNAc(b1-2)Man(a1-6)]Man(b1-4)GlcNAc(b1-4)GlcNAc", "in_short": "as §1"}, "[7]": {"target": "GalNAc(b1-4)GlcNAc(b1-3)GalNAc(b1-4)GlcNAc", "in_short": "as §1"}, "GalNAc(b1-4)GlcNAc6S": {"target": "GalNAc(b1-4)GlcNAc6S", "in_short": "as §1"}, "GalNAc(b1-6)GalNAc": {"target": "GalNAc(b1-6)GalNAc", "in_short": "as §1"}, "GalNAc3S(b1-4)GlcNAc": {"target": "GalNAc3S(b1-4)GlcNAc", "in_short": "as §1"}, "GalNAc3S(b1-4)GlcNAc3S": {"target": "GalNAc3S(b1-4)GlcNAc3S", "in_short": "as §1"}, "[8]": {"target": "GalNAc3S(b1-4)[Fuc(a1-3)]GlcNAc", "in_short": "as §1"}, "GalNAc4S6S(b1-4)GlcNAc": {"target": "GalNAc4S6S(b1-4)GlcNAc", "in_short": "as §1"}, "GalNAc6S(b1-4)GlcNAc": {"target": "GalNAc6S(b1-4)GlcNAc", "in_short": "as §1"}, "Glc(a1-4)Glc": {"target": "Glc(a1-4)Glc", "in_short": "as §1"}, "[9]": {"target": "Glc(a1-4)Glc(a1-4)Glc(a1-4)Glc", "in_short": "as §1"}, "Glc(a1-6)Glc(a1-6)Glc": {"target": "Glc(a1-6)Glc(a1-6)Glc", "in_short": "as §1"}, "[10]": {"target": "Glc(a1-6)Glc(a1-6)Glc(a1-6)Glc", "in_short": "as §1"}, "Glc(b1-4)Glc": {"target": "Glc(b1-4)Glc", "in_short": "as §1"}, "Glc(b1-6)Glc": {"target": "Glc(b1-6)Glc", "in_short": "as §1"}, "GlcA(b1-3)Gal": {"target": "GlcA(b1-3)Gal", "in_short": "as §1"}, "GlcA(b1-3)GlcNAc": {"target": "GlcA(b1-3)GlcNAc", "in_short": "as §1"}, "GlcA(b1-6)Gal": {"target": "GlcA(b1-6)Gal", "in_short": "as §1"}, "[11]": {"target": "GlcA3S(b1-3)Gal(b1-4)GlcNAc(b1-2)Man", "in_short": "as §1"}, "[12]": {"target": "GlcA3S(b1-3)Gal(b1-4)GlcNAc(b1-3)Gal(b1-4)Glc", "in_short": "as §1"}, "[13]": {"target": "GlcNAc(a1-3)Gal(b1-4)GlcNAc", "in_short": "as §1"}, "[14]": {"target": "GlcNAc(a1-4)Gal(b1-3)GlcNAc", "in_short": "as §1"}, "[15]": {"target": "GlcNAc(a1-4)Gal(b1-4)GalNAc", "in_short": "as §1"}, "[16]": {"target": "GlcNAc(a1-4)Gal(b1-4)GlcNAc", "in_short": "as §1"}, "[17]": {"target": "GlcNAc(a1-4)Gal(b1-4)GlcNAc(b1-3)Gal(b1-4)Glc", "in_short": "as §1"}, "[18]": {"target": "GlcNAc(a1-4)Gal(b1-4)GlcNAc(b1-3)Gal(b1-4)GlcNAc", "in_short": "as §1"}, "[19]": {"target": "GlcNAc(a1-4)Gal(b1-4)GlcNAc(b1-3)Gal(b1-4)GlcNAc(b1-3)Gal(b1-4)GlcNAc", "in_short": "as §1"}, "[20]": {"target": "GlcNAc(a1-4)Gal(b1-4)GlcNAc(b1-3)Gal(b1-4)[Fuc(a1-3)]GlcNAc(b1-3)Gal(b1-4)[Fuc(a1-3)]GlcNAc", "in_short": "as §1"}, "[21]": {"target": "GlcNAc(a1-6)Gal(b1-4)GlcNAc", "in_short": "as §1"}, "[22]": {"target": "GlcNAc(b1-2)Gal(b1-3)GalNAc", "in_short": "as §1"}, "[23]": {"target": "GlcNAc(b1-2)Man(a1-3)[GlcNAc(b1-2)Man(a1-6)]Man(b1-4)GlcNAc(b1-4)GlcNAc", "in_short": "as §1"}, "[24]": {"target": "GlcNAc(b1-2)Man(a1-3)[GlcNAc(b1-2)Man(a1-6)]Man(b1-4)GlcNAc(b1-4)[Fuc(a1-6)]GlcNAc", "in_short": "as §1"}, "[25]": {"target": "GlcNAc(b1-2)Man(a1-3)[GlcNAc(b1-4)][GlcNAc(b1-2)Man(a1-6)]Man(b1-4)GlcNAc(b1-4)GlcNAc", "in_short": "as §1"}, "[26]": {"target": "GlcNAc(b1-2)Man(a1-3)[GlcNAc(b1-4)][GlcNAc(b1-2)Man(a1-6)]Man(b1-4)GlcNAc(b1-4)[Fuc(a1-6)]GlcNAc", "in_short": "as §1"}, "[27]": {"target": "GlcNAc(b1-2)[GlcNAc(b1-4)]Man(a1-3)[GlcNAc(b1-2)Man(a1-6)]Man(b1-4)GlcNAc(b1-4)GlcNAc", "in_short": "as §1"}},
  "note": "This is one part of the list.",
  "data": [
    {"binder": "B1", "values": [
      {"measurement": "glycan array binding signal (z-score)", "setting": "[1]", "result": -0.341},
      {"measurement": "glycan array binding signal (z-score)", "setting": "GalNAc(b1-3)Gal", "result": -0.054},
      {"measurement": "glycan array binding signal (z-score)", "setting": "[2]", "result": -0.186},
      {"measurement": "glycan array binding signal (z-score)", "setting": "[3]", "result": -0.154},
      {"measurement": "glycan array binding signal (z-score)", "setting": "[4]", "result": -0.181},
      {"measurement": "glycan array binding signal (z-score)", "setting": "GalNAc(b1-3)GalNAc", "result": -0.123},
      {"measurement": "glycan array binding signal (z-score)", "setting": "GalNAc(b1-3)GlcNAc", "result": -0.372},
      {"measurement": "glycan array binding signal (z-score)", "setting": "GalNAc(b1-4)Gal(b1-4)Glc", "result": -0.031},
      {"measurement": "glycan array binding signal (z-score)", "setting": "GalNAc(b1-4)GlcNAc", "result": 3.38},
      {"measurement": "glycan array binding signal (z-score)", "setting": "[5]", "result": 2.46},
      {"measurement": "glycan array binding signal (z-score)", "setting": "[6]", "result": 1.1},
      {"measurement": "glycan array binding signal (z-score)", "setting": "[7]", "result": 8.25},
      {"measurement": "glycan array binding signal (z-score)", "setting": "GalNAc(b1-4)GlcNAc6S", "result": 3.05},
      {"measurement": "glycan array binding signal (z-score)", "setting": "GalNAc(b1-6)GalNAc", "result": -0.388},
      {"measurement": "glycan array binding signal (z-score)", "setting": "GalNAc3S(b1-4)GlcNAc", "result": -0.295},
      {"measurement": "glycan array binding signal (z-score)", "setting": "GalNAc3S(b1-4)GlcNAc3S", "result": -0.378},
      {"measurement": "glycan array binding signal (z-score)", "setting": "[8]", "result": -0.303},
      {"measurement": "glycan array binding signal (z-score)", "setting": "GalNAc4S6S(b1-4)GlcNAc", "result": -0.344},
      {"measurement": "glycan array binding signal (z-score)", "setting": "GalNAc6S(b1-4)GlcNAc", "result": -0.254},
      {"measurement": "glycan array binding signal (z-score)", "setting": "Glc(a1-4)Glc", "result": -0.112},
      {"measurement": "glycan array binding signal (z-score)", "setting": "[9]", "result": -0.043},
      {"measurement": "glycan array binding signal (z-score)", "setting": "Glc(a1-6)Glc(a1-6)Glc", "result": -0.207},
      {"measurement": "glycan array binding signal (z-score)", "setting": "[10]", "result": -0.077},
      {"measurement": "glycan array binding signal (z-score)", "setting": "Glc(b1-4)Glc", "result": 0.081},
      {"measurement": "glycan array binding signal (z-score)", "setting": "Glc(b1-6)Glc", "result": 0.034},
      {"measurement": "glycan array binding signal (z-score)", "setting": "GlcA(b1-3)Gal", "result": -0.116},
      {"measurement": "glycan array binding signal (z-score)", "setting": "GlcA(b1-3)GlcNAc", "result": -0.363},
      {"measurement": "glycan array binding signal (z-score)", "setting": "GlcA(b1-6)Gal", "result": -0.111},
      {"measurement": "glycan array binding signal (z-score)", "setting": "[11]", "result": -0.333},
      {"measurement": "glycan array binding signal (z-score)", "setting": "[12]", "result": -0.151},
      {"measurement": "glycan array binding signal (z-score)", "setting": "[13]", "result": -0.153},
      {"measurement": "glycan array binding signal (z-score)", "setting": "[14]", "result": -0.188},
      {"measurement": "glycan array binding signal (z-score)", "setting": "[15]", "result": -0.15},
      {"measurement": "glycan array binding signal (z-score)", "setting": "[16]", "result": -0.164},
      {"measurement": "glycan array binding signal (z-score)", "setting": "[17]", "result": -0.136},
      {"measurement": "glycan array binding signal (z-score)", "setting": "[18]", "result": -0.229},
      {"measurement": "glycan array binding signal (z-score)", "setting": "[19]", "result": -0.256},
      {"measurement": "glycan array binding signal (z-score)", "setting": "[20]", "result": -0.079},
      {"measurement": "glycan array binding signal (z-score)", "setting": "[21]", "result": -0.176},
      {"measurement": "glycan array binding signal (z-score)", "setting": "[22]", "result": -0.192},
      {"measurement": "glycan array binding signal (z-score)", "setting": "[23]", "result": -0.151},
      {"measurement": "glycan array binding signal (z-score)", "setting": "[24]", "result": -0.072},
      {"measurement": "glycan array binding signal (z-score)", "setting": "[25]", "result": -0.374},
      {"measurement": "glycan array binding signal (z-score)", "setting": "[26]", "result": -0.063},
      {"measurement": "glycan array binding signal (z-score)", "setting": "[27]", "result": -0.125}
    ]}
  ]
}
